Results as given in PMC9574860, “Chemical Toolkit for PARK7: Potent, Selective, and High-Throughput” (Journal of Medicinal Chemistry, 2022).
Among all 7,900 compounds or so, about 400 (5.1%) showed an effect of 50% or more. Some of the results follow.

What follows are compounds tested against Parkinson's disease protein 7 (PARK7/DJ1) (human, UniProt Q99497) (assay: primary screen, percent inhibition; read as competition with a fluorescent probe by fluorescence polarization; higher = more effect of the substance). Conditions: 100 µM.
Chain of Parkinson's disease protein 7 (PARK7/DJ1) (Q99497 whole entry, looked up, the tested form may be a part): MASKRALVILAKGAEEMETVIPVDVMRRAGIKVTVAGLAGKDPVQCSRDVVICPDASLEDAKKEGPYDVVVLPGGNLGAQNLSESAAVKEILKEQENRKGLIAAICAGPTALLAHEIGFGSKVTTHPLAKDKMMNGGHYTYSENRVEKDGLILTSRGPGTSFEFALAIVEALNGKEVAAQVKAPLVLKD
In short: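 Covalent fragments at 100 μM final were incubated 2 h with 0.2 μM PARK7, then 20 nM probe JYQ-107 added for a further 2 h. Fluorescence polarization read at 480/520 nm; relative FP loss versus reference controls gave remaining enzyme activity.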

SMILES | Inhibition %
CCC(C)c1ccc(NC(=O)CCl)cc1 (centres unmarked) | 99.1%
CC1(C)OB(c2ccc3c(c2)C(=O)OCC3)OC1(C)C | 7.34%
N#Cc1c(F)cccc1N1CCC(C2OCCO2)CC1 | 9.67%
CCOc1ccc(S(=O)(=O)n2cnc(C)c2)cc1 | 3.31%
Cc1ccc(S(=O)(=O)OCC2CCOCO2)cc1 (centres unmarked) | 3.3%
O=C(CCl)N(c1ccccc1)C1C=CS(=O)(=O)C1 (centres unmarked) | 12.2%
N#Cc1ccnc(Cl)n1 | 3.95%
O=C(N1CCc2[nH]c3ccc(F)cc3c2C1)n1ccnc1 | 36.3%
CC(C1CCOCC1)n1c(S)nc2ccccc2c1=O (centres unmarked) | 4.97%
OB(O)c1ccc(C2CC2)cc1Cl | 2.09%
Sc1nnnc2ccccc12 | 3.52%
CCn1nccc1CCCl.Cl | 9.16%
O=C(Nc1cccc(OCC(F)F)n1)c1cccnc1S | 7.62%
C=CC(=O)N1CCc2cc(Cl)ccc21 | 9.14%
CS(=O)(=O)OCC1CCCNC1=O (centres unmarked) | 7.7%
O=C(CCl)NC(=O)Nc1ccccc1F | -2.13%
CN(Cc1ccsc1)C(=O)CCl | 37.6%
C=CC(=O)NCC1C=CCC1 (centres unmarked) | 7.33%
C=CC(=O)N1CC(C)OC(COC)C1 (centres unmarked) | 6.19%
N#Cc1ccc(Cl)cn1 | 8.27%
CCOc1ccc2nc(NC(=O)CCl)sc2c1 | 4%
CC(C)CCSc1nccnc1C#N | 0.988%
CC1(C)OB(c2ccc([N+](=O)[O-])nc2)OC1(C)C | 6.69%
O=C(c1ccc2c(=O)[nH]c(S)nc2c1)N1CCC12CCC2 | 4.97%
Cc1cc(NC(=O)CCl)ccc1Br | 32.6%
C=CC(=O)N1CCCCC1CC(N)=O (centres unmarked) | 9.75%
N#CC(=Cc1cccnc1)C(=O)NCc1ccccc1 | 2.93%

SMILES | Inhibition %
Nc1nnc(CCCl)s1 | 6.53%
CC(C)CNc1oc(Cc2ccccc2)nc1C#N | 6.85%
O=C(CCl)Nc1ccc(Br)cc1Cl | 1.88%
COCCc1cccc(B2OC(C)(C)C(C)(C)O2)c1 | 2.75%
CCOc1cc(C)c(S(=O)(=O)n2ccnc2C)cc1C | 5.28%
CCn1cc(C=C(C#N)c2nc(C)c(C)s2)cn1 | -0.196%
O=C(CCN1C(=O)CCC1=O)NC1CCCCCC1 | 6.54%
C=CC(=O)NCC1CCCC(=O)N1 (centres unmarked) | 13.6%
Cc1csc(C(C#N)=Cc2cnn(C)c2)n1 | 11.9%
Cc1ccc2cccc(OC(=O)N(C)C)c2n1 | 5.34%
O=C1OCCC1N1CCN(C(=O)c2ccco2)CC1 (centres unmarked) | 2.84%
CC(C)c1nc(C#N)cs1 | 5.66%
N#CC(=Cc1cccc(OCc2ccccc2)c1)C(N)=O | 6.41%
C=CC(=O)NCC1(O)CC(OCC)C1(C)C (centres unmarked) | -1.83%
C=CC(=O)NC(C)CCc1ccc2c(c1)OCO2 (centres unmarked) | 4.2%
C=CC(=O)N1CCCC(c2nc3c(s2)CCCC3)C1 (centres unmarked) | 7.94%
O=C(CCl)NCC1(c2ccc3c(c2)OCCO3)CCCC1 | 6.4%
CC1(C)OB(c2ccoc2)OC1(C)C | 3.89%
Cc1nc2ccc(B3OC(C)(C)C(C)(C)O3)cc2o1 | 3.21%
Cc1cc(C(=O)CCl)c(C)n1-c1nccs1 | 4.37%
CS(=O)(=O)N1CCC(NC(=O)CCl)CC1 | 1.74%
CN1CCC(Cc2nc(-c3cccc(B(O)O)c3)no2)CC1 | 11.6%
C=CC(=O)Nc1cccc2c1OCCC2 | 8.72%
CC1CCN(CCOc2cccc(B3OC(C)(C)C(C)(C)O3)c2)CC1 | 0.586%
Cc1cc(C(=O)CCl)c(C)n1CC(N)=O | 4.29%
CN(C)C(=O)Oc1ccc(C#N)cc1 | 3.63%
N#Cc1ccc(F)cn1 | 6.02%

SMILES | Inhibition %
COc1ccc(C=C(C#N)c2ccccn2)cc1O | 19.3%
C=CC(=O)NC1CC(N2CCC(C(F)(F)F)CC2)C1 (centres unmarked) | 10.7%
Cc1ccccc1NC(=O)C(C#N)=Cc1cccnc1 | 13.6%
CC1(C)OB(c2cccc3cc[nH]c23)OC1(C)C | 3.3%
C=CC(=O)NCC1(c2ccccc2)CCOCC1 | 5.18%
C=CS(=O)(=O)Oc1cc(C)cc(C)c1 | 7.19%
C=CS(=O)(=O)C1CCCCC1 | 7.8%
CC(C)Oc1ccc(B2OC(C)(C)C(C)(C)O2)cc1F | 29.9%
C=CC(=O)N1CCc2cc(Cl)nnc2C1 | 6.51%
CC1CCN(C(=O)CCN2CCSC2=O)c2ccccc21 (centres unmarked) | 15.3%
Cc1ccc(C=C(C#N)C(=O)N2CCCC2)s1 | 1.3%
C=CC(=O)Nc1cc(NC(=O)C2CCC2)ccc1F | 19.5%
N#CC=C(c1ccc(F)cc1)N1CCOCC1 | 6.31%
Cc1nscc1C(=O)NCCN1C(=O)CCC1=O | 14%
Cc1ccc(S(N)(=O)=O)cc1NC(=O)CCl | 5.6%
CC(C)(C)OC(=O)N1CCCC(CB2OC(C)(C)C(C)(C)O2)C1 (centres unmarked) | 2.29%
N#CC(=Cc1ccsc1)C(=O)NC1CCCCC1 | 6.17%
COc1ccc(NC(=O)CCl)cc1Cl | 28.1%
C=CC(=O)NC[C@@H]1CCN(C)[C@H]1c1cccnc1 (racemic) | 8.57%
O=C(O)Cn1nc(-c2ccccc2)oc1=O | 2.77%
COC1CS(=O)(=O)CC1Cl (centres unmarked) | 8.34%
C=CC(=O)N1CCN(CCC)C(=O)C1(C)C | 6.22%
O=S(=O)(F)[C@@H]1CN(Cc2ccccc2)C[C@H]1c1ccc(F)cc1 (racemic) | 5.52%
CS(=O)(=O)n1cnc2ccccc21 | 11.4%
C=CC(=O)N[C@@H](C)c1nccs1 | 6.7%
O=c1[nH]c(=O)n(C2CC2)c2nc(C3CC3)nc(S)c12 | 3.15%
